# Laboratory results published in the supplement of paper PMC8728848.
# The list shows a part of the results.
# B1: LTL (Lotus tetragonolobus), P19664 (protein)
# chain: VSFNYTEFKDDGSLILQGDAKIWTDGRLAMPTDPLVNNPKTTRSAGRALYATPVPIWDSATGNVASFVTSFNFLFVIRELKYTPTDGLVFFLAPVGTEIPSGSTGGFLGIFDGSNGFNQFVAVEFDSYHNIWDPKSLRSSHVGIDVNSIMSLKAVNWNRVSGSLEKATIIYDSQTNILSVVMTSQNGQITTIYGTIDLKTVLPEKVSVGFSATTGNPEREKHDIYSWSFTSTLKEPEEQA
# Experiments:
# Assay in all cases: glycan array binding signal (z-score within array); higher = stronger binding
# Conditions in all cases: glycan notation: IUPAC condensed, linker removed
# [1] = target: Gal(b1-3)GlcNAc(b1-6)Gal(b1-4)GlcNAc
# Method in brief: (§1)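 From the Consortium for Functional Glycomics database, 3228 arrays were curated, keeping only those whose protein sequence was available. Binding is given as a within-array Z-score averaged across arrays sharing a protein sequence and across linkers. Negative Z-scores can be read as non-binding.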
# [2] = target: Gal(b1-3)GlcNAc(b1-6)GalNAc
# Method in brief: as §1
# [3] = target: Gal(b1-3)GlcNAc(b1-6)[Gal(b1-3)]GalNAc
# Method in brief: as §1
# Gal(b1-3)GlcNAc6S = target: Gal(b1-3)GlcNAc6S
# Method in brief: as §1
# [4] = target: Gal(b1-3)[Fuc(a1-4)]GlcNAc
# Method in brief: as §1
# [5] = target: Gal(b1-3)[Fuc(a1-4)]GlcNAc(b1-2)Man
# Method in brief: as §1
# [6] = target: Gal(b1-3)[Fuc(a1-4)]GlcNAc(b1-2)Man(a1-3)[Gal(b1-3)[Fuc(a1-4)]GlcNAc(b1-2)Man(a1-6)]Man(b1-4)GlcNAc(b1-4)[Fuc(a1-6)]GlcNAc
# Method in brief: as §1
# [7] = target: Gal(b1-3)[Fuc(a1-4)]GlcNAc(b1-3)Gal(b1-3)[Fuc(a1-4)]GlcNAc
# Method in brief: as §1
# [8] = target: Gal(b1-3)[Fuc(a1-4)]GlcNAc(b1-3)Gal(b1-4)GlcNAc
# Method in brief: as §1
# [9] = target: Gal(b1-3)[Fuc(a1-4)]GlcNAc(b1-3)Gal(b1-4)[Fuc(a1-3)]GlcNAc
# Method in brief: as §1
# [10] = target: Gal(b1-3)[Fuc(a1-4)]GlcNAc(b1-6)GalNAc
# Method in brief: as §1
# [11] = target: Gal(b1-3)[GlcNAc(b1-6)]GalNAc
# Method in brief: as §1
# [12] = target: Gal(b1-3)[GlcNAc(b1-6)]GlcNAc
# Method in brief: as §1
# [13] = target: Gal(b1-3)[Neu5Ac(a2-6)]GalNAc
# Method in brief: as §1
# [14] = target: Gal(b1-3)[Neu5Ac(a2-6)]GlcNAc
# Method in brief: as §1
# [15] = target: Gal(b1-3)[Neu5Ac(a2-6)]GlcNAc(a1-4)Gal(b1-4)Glc
# Method in brief: as §1
# [16] = target: Gal(b1-3)[Neu5Ac(a2-6)]GlcNAc(b1-4)Gal(b1-4)Glc
# Method in brief: as §1
# [17] = target: Gal(b1-3)[Neu5Ac(a2-6)]GlcNAc(b1-6)Gal(b1-4)Glc
# Method in brief: as §1
# [18] = target: Gal(b1-3)[Neu5Ac(b2-6)]GalNAc
# Method in brief: as §1
# [19] = target: Gal(b1-3)[Neu5Ac(b2-6)]GlcNAc
# Method in brief: as §1
# Gal(b1-4)Gal = target: Gal(b1-4)Gal
# Method in brief: as §1
# [20] = target: Gal(b1-4)GalNAc(a1-3)[Fuc(a1-2)]Gal(b1-4)GlcNAc
# Method in brief: as §1
# [21] = target: Gal(b1-4)GalNAc(b1-3)[Fuc(a1-2)]Gal(b1-4)GlcNAc
# Method in brief: as §1
# Gal(b1-4)Glc = target: Gal(b1-4)Glc
# Method in brief: as §1
# Gal(b1-4)Glc6S = target: Gal(b1-4)Glc6S
# Method in brief: as §1
# Gal(b1-4)GlcNAc = target: Gal(b1-4)GlcNAc
# Method in brief: as §1
# [22] = target: Gal(b1-4)GlcNAc(a1-6)Gal(b1-4)GlcNAc
# Method in brief: as §1
# Gal(b1-4)GlcNAc(b1-2)Man = target: Gal(b1-4)GlcNAc(b1-2)Man
# Method in brief: as §1
# [23] = target: Gal(b1-4)GlcNAc(b1-2)Man(a1-3)Man(b1-4)GlcNAc(b1-4)GlcNAc
# Method in brief: as §1
# [24] = target: Gal(b1-4)GlcNAc(b1-2)Man(a1-3)[Gal(b1-4)GlcNAc(b1-2)Man(a1-6)]Man(b1-4)GlcNAc(b1-4)GlcNAc
# Method in brief: as §1
# [25] = target: Gal(b1-4)GlcNAc(b1-2)Man(a1-3)[Gal(b1-4)GlcNAc(b1-2)Man(a1-6)]Man(b1-4)GlcNAc(b1-4)[Fuc(a1-6)]GlcNAc
# Method in brief: as §1
# [26] = target: Gal(b1-4)GlcNAc(b1-2)Man(a1-3)[Gal(b1-4)GlcNAc(b1-2)Man(a1-6)][Gal(b1-4)GlcNAc(b1-4)]Man(b1-4)GlcNAc(b1-4)[Fuc(a1-6)]GlcNAc
# Method in brief: as §1
# [27] = target: Gal(b1-4)GlcNAc(b1-2)Man(a1-3)[Gal(b1-4)GlcNAc(b1-2)Man(a1-6)][GlcNAc(b1-4)]Man(b1-4)GlcNAc(b1-4)[Fuc(a1-6)]GlcNAc
# Method in brief: as §1
# [28] = target: Gal(b1-4)GlcNAc(b1-2)Man(a1-3)[GlcNAc(b1-2)Man(a1-6)]Man(b1-4)GlcNAc(b1-4)GlcNAc
# Method in brief: as §1
# [29] = target: Gal(b1-4)GlcNAc(b1-2)Man(a1-3)[GlcNAc(b1-4)][Gal(b1-4)GlcNAc(b1-2)Man(a1-6)]Man(b1-4)GlcNAc(b1-4)GlcNAc
# Method in brief: as §1
# [30] = target: Gal(b1-4)GlcNAc(b1-2)Man(a1-3)[Man(a1-6)]Man(b1-4)GlcNAc(b1-4)GlcNAc
# Method in brief: as §1
# [31] = target: Gal(b1-4)GlcNAc(b1-2)Man(a1-6)Man(b1-4)GlcNAc(b1-4)GlcNAc
# Method in brief: as §1
binder,measurement,setting,value
B1,glycan array binding signal (z-score),[1],-0.058
same,glycan array binding signal (z-score),[2],-0.399
same,glycan array binding signal (z-score),[3],-0.151
same,glycan array binding signal (z-score),Gal(b1-3)GlcNAc6S,-0.34
same,glycan array binding signal (z-score),[4],-0.207
same,glycan array binding signal (z-score),[5],-0.193
same,glycan array binding signal (z-score),[6],0.031
same,glycan array binding signal (z-score),[7],-0.206
same,glycan array binding signal (z-score),[8],-0.389
same,glycan array binding signal (z-score),[9],-0.319
same,glycan array binding signal (z-score),[10],0.223
same,glycan array binding signal (z-score),[11],0.04
same,glycan array binding signal (z-score),[12],-0.632
same,glycan array binding signal (z-score),[13],-0.277
same,glycan array binding signal (z-score),[14],-0.453
same,glycan array binding signal (z-score),[15],-0.403
same,glycan array binding signal (z-score),[16],-0.257
same,glycan array binding signal (z-score),[17],-0.332
same,glycan array binding signal (z-score),[18],-0.336
same,glycan array binding signal (z-score),[19],-0.518
same,glycan array binding signal (z-score),Gal(b1-4)Gal,-0.131
same,glycan array binding signal (z-score),[20],-0.342
same,glycan array binding signal (z-score),[21],-0.444
same,glycan array binding signal (z-score),Gal(b1-4)Glc,-0.28
same,glycan array binding signal (z-score),Gal(b1-4)Glc6S,-0.191
same,glycan array binding signal (z-score),Gal(b1-4)GlcNAc,-0.171
same,glycan array binding signal (z-score),[22],-0.286
same,glycan array binding signal (z-score),Gal(b1-4)GlcNAc(b1-2)Man,-0.192
same,glycan array binding signal (z-score),[23],-0.363
same,glycan array binding signal (z-score),[24],-0.302
same,glycan array binding signal (z-score),[25],-0.208
same,glycan array binding signal (z-score),[26],-0.351
same,glycan array binding signal (z-score),[27],-0.287
same,glycan array binding signal (z-score),[28],-0.193
same,glycan array binding signal (z-score),[29],-0.109
same,glycan array binding signal (z-score),[30],-0.15
same,glycan array binding signal (z-score),[31],-0.209
